Laboratory results: PubChem BioAssay (Tox21)
“And” between values parts separate entries of the source, which are not always exact repeats. Equal entries are not always repeated. Inconclusive results, whose numbers are uncertain, are shown with a selection of clear calls. For some assays here: Potencies beside an inconclusive call are fits to weak or partial responses and may not hold up. The source made the active and inactive calls. Unless noted, the call rests on the fitted dose curve; in most records, active means well fitted curve in the direction sought with a large enough effect in the repeat runs; inconclusive means weak or mixed curves; inactive means no such curve, though single readings can be large; an effect the other way counts as inactive or inconclusive.

Assays:
[1] = qHTS assay to identify small molecule antagonists of the peroxisome proliferator-activated receptor delta (PPARd) signaling pathway - cell viability counter screen (AID 743213); details: PPARd-bla HEK293H viability, CellTiter-Glo luminescence, 17 h; viability change, negative = cytotoxic: at 62 µM (top of the series) unless noted; further: nearly all actives have a fitted effect of over 50% in size; further: potency means the concentration at half of the fitted maximal effect; on viability change, negative = cytotoxic: on the % scale 0 is the no-effect control and ±100 the full control effect
Method in brief: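 PPARd-bla HEK293H cells were treated with compounds plus agonist L165041 (300 nM final) for 17 h at 37 C. Viability was then read in the same wells by CellTiter-Glo luminescence after 30 min at room temperature.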

[2] = qHTS assay to identify small molecule agonists of the farnesoid-X-receptor (FXR) signaling pathway - cell viability counter screen (AID 743218); details: FXR-bla HEK293T viability, CellTiter-Glo luminescence, 16 h; viability change, negative = cytotoxic: at 62.6 µM (top of the series); further: nearly all actives have a fitted effect of over 45% in size; further: potency means the concentration at half of the fitted maximal effect
Method in brief: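 HEK 293T FXR-bla cells; 5 h pre-incubation, 16 h compound exposure at 37 C; LiveBLAzer substrate 2 h RT, then CellTiter-Glo 30 min RT, luminescence.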

[3] = target: Luciferin 4-monooxygenase (Photinus pyralis) (UniProt P08659); experiment: qHTS assay to identify small molecule inhibitors of firefly luciferase (AID 1224835); further: nearly all actives have a fitted effect of over 25% in size; further: potency means the concentration at half of the fitted maximal effect
Method in brief: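 Biochemical qHTS: compounds run as interplate titrations against purified firefly enzyme, with D-luciferin and ATP each at its KM concentration. Light output recorded by CCD imaging.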

[4] = qHTS assay to identify small molecule agonists of the sonic hedgehog signaling (Shh) pathway - cell viability counter screen (AID 1259366); further: potency means the concentration at half of the fitted maximal effect; nearly all actives have a fitted effect of over 50% in size
Method in brief: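 Same-well cytotoxicity read. Gli1-Luc reporter 3T3 cells; compounds 24hr, 37C/5% CO2; CellTiter-Fluor fluorescence.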

[5] = qHTS assay to identify small molecule antagonists of the progesterone receptor (PR) signaling pathway - cell viability counter screen (AID 1346798); further: nearly all actives have a fitted effect of over 50% in size; further: potency means the concentration at half of the fitted maximal effect
Method in brief: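 Following a 4 hr attachment, PR-UAS-bla HEK293T cells in charcoal-stripped FBS medium were exposed to compounds with R5020 for 16 hr; CellTiter-Glo was added and luminescence read after 30 min at room temperature.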

[6] = Caspase-3/7 induction in HepG2 cells by small molecules, qHTS cell viability counter screen (AID 1346981); further: potency means the concentration at half of the fitted maximal effect; nearly all actives have a fitted effect of over 30% in size
Method in brief: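 HepG2, WT, 2,000 cells/well; 5 hr pre-incubation 37 C/5% CO2; compound pin-transferred from DMSO; 16 hr exposure; CellTiter-Fluor, 1 hr; fluorescence read.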

[7] = target: Nuclear receptor subfamily 1 group I member 2 (Homo sapiens) (UniProt O75469); experiment: Human pregnane X receptor (PXR) small molecule agonists, qHTS assay (AID 1346982); further: nearly all actives have a fitted effect of over 35% in size; further: potency means the concentration at half of the fitted maximal effect
Method in brief: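 Luciferase signal from ONE-Glo (30 min, room temperature) measured activation of hPXR-driven CYP3A4 reporter expression in PXR-Luc HepG2 cells treated with compounds for 24 hr at 37 C.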

[8] = qHTS assay to identify small molecule antagonists of the peroxisome proliferator-activated receptor gamma (PPARg) signaling pathway - cell viability counter screen (AID 743194); details: PPARg-bla HEK293H viability, CellTiter-Glo luminescence, 17 h; Potency: co-treated with 50 nM rosiglitazone unless noted; activity change, negative = cytotoxicity: at 62.6 µM (top of the series), co-treated with 50 nM rosiglitazone unless noted; further: nearly all actives have a fitted effect of over 55% in size; further: potency means the concentration at half of the fitted maximal effect; on activity change, negative = cytotoxicity: on the % scale 0 is the no-effect control and ±100 the full control effect
Method in brief: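 Cytotoxicity counter screen in PPARg-bla HEK293H cells, same wells as reporter assay. Compounds plus 50 nM rosiglitazone (final) for 17 h at 37 C, then viability read by CellTiter-Glo luminescence.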

[9] = target: Peroxisome proliferator-activated receptor delta (Homo sapiens) (UniProt Q03181); experiment: qHTS assay to identify small molecule antagonists of the peroxisome proliferator-activated receptor delta (PPARd) signaling pathway (AID 743215; active means well fitted inhibition curve with a large enough effect in the signal ratio in the repeat runs, not every such curve was filed as active; inconclusive means weak or mixed curves, or effect the other way; inactive means no such curve, though single readings can be large or run the other way; the % refers to the signal ratio;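 further: cells stimulated with agonist L165041 at 300 nM final during compound exposure; on the % scale 0 is the no-effect control and ±100 the full control effect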); details: HEK293H PPARd-UAS-bla, beta-lactamase FRET ratio, antagonist, 17 h; ratio activity, negative = inhibition: at 62 µM (top of the series) unless noted
Method in brief: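 Read-out is beta-lactamase FRET fluorescence, measured 2 h after substrate addition at room temperature. Beforehand, UAS-bla HEK293H cells carrying the PPARd reporter were exposed to compounds with L165041 at 300 nM final for 17 h at 37 C.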

[10] = qHTS assay to identify small molecule agonists of H2AX (AID 1224845; active means well fitted activation curve with a large enough effect in the signal ratio in the repeat runs, not every such curve was filed as active; inconclusive means weak or mixed curves; the % refers to the signal ratio; further: potency means the concentration at half of the fitted maximal effect); details: CHO-K1 phospho-H2AX Ser139 HTRF, 3 h; activation (H2AX phosphorylation): at 154 µM (top of the series) unless noted
Method in brief: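 Wild-type CHO-K1 cells, plated overnight, exposed 3hr at 37C to 15 concentrations (0.76% DMSO final). Lysed, then HTRF anti-pH2AX (S139) cryptate and anti-H2AX-d2 antibodies, 24 hr room temperature; 665/620 nm emission read.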

[11] = qHTS RealTime-Glo MT Cell Viability Assay in HEK293 cells - 32 hour (AID 1224868); further: nearly all actives have a fitted effect of over 50% in size; further: potency means the concentration at half of the fitted maximal effect
Method in brief: (§1)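 HEK293 cells were seeded at 600 cells/well together with NanoLuc luciferase and cell-permeant prosubstrate, preincubated 5 h at 37 C/5% CO2, then given compound in DMSO by pintool. Luminescence from viable-cell prosubstrate reduction was read repeatedly over 40 h.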

[12] = qHTS RealTime-Glo MT Cell Viability Assay in HEK293 cells - 8 hour (AID 1224887); further: nearly all actives have a fitted effect of over 50% in size; further: potency means the concentration at half of the fitted maximal effect
Method in brief: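 Cells were seeded together with NanoLuc luciferase and a prosubstrate that viable cells reduce to a luciferase substrate. After a 5 h incubation at 37 C/5% CO2, compounds were added and luminescence was measured repeatedly during 40 h of treatment.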

[13] = target: Estrogen receptor beta (Homo sapiens) (UniProt Q92731); experiment: qHTS assay to identify small molecule antagonists of the estrogen receptor beta (ER-beta) signaling pathway (AID 1259378; active means well fitted inhibition curve with a large enough effect in the signal ratio in the repeat runs, not every such curve was filed as active; inconclusive means weak or mixed curves, or effect the other way; inactive means no such curve, though single readings can be large or run the other way; the % refers to the signal ratio; further: on the % scale 0 is the no-effect control and ±100 the full control effect); details: ER-beta-UAS-bla HEK293T, beta-lactamase FRET ratio, 16 h; activity, negative = inhibition: at 92.4 µM (top of the series) unless noted
Method in brief: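 ER-beta-UAS-bla HEK293T cells in 2% charcoal-stripped FBS medium treated with compound plus 1nM final 17-beta-estradiol for 16 hr at 37C. Beta-lactamase reporter read by FRET substrate fluorescence after 2 hours at room temperature.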

[14] = qHTS assay to identify small molecule antagonists of the estrogen receptor alpha (ER-alpha) signaling pathway using the BG1 cell line (AID 743080; calls by dose curve;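 further: BG1 cells stimulated with 17beta-estradiol alongside compound; nearly all actives have a fitted effect of over 25% in size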; further: potency means the concentration at half of the fitted maximal effect); details: BG1Luc4E2 ERE-luciferase antagonist mode, luminescence; activity change, negative = inhibition: at 70.3 µM (top of the series) unless noted
Method in brief: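 BG1-Luc-4E2 cells (endogenous full-length ER-alpha, stable 4×ERE-luciferase) were starved 5 days in phenol-red-free medium with 10% charcoal-stripped FBS, plated 24 h, then given compound plus 17beta-estradiol for 21.5 h at 37 C; ONE-Glo luminescence read after 30 min.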

[15] = qHTS assay to identify small molecule antagonists of the vitamin D receptor (VDR) signaling pathway - cell viability counter screen (AID 743225); details: VDR-bla HEK293T viability, CellTiter-Glo luminescence, 16 h; viability change, negative = cytotoxic: at 61 µM (top of the series) unless noted; further: nearly all actives have a fitted effect of over 50% in size; further: potency means the concentration at half of the fitted maximal effect
Method in brief: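 Parallel cytotoxicity test: VDR-UAS-bla HEK 293T, 3 nM (final) 1-alpha,25-dihydroxyvitamin D3 with test compound, 16 h, 37C. Endpoint is CellTiter-Glo luminescence in the same wells.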

[16] = target: Estrogen receptor (Homo sapiens) (UniProt P03372); experiment: qHTS assay to identify small molecule agonists of the estrogen receptor alpha (ER-alpha) signaling pathway using the BG1 cell line (AID 743079); details: BG1Luc4E2 cells, ERE-luciferase agonist, 22 h; activation: at 70.3 µM (top of the series) unless noted; further: nearly all actives have a fitted effect of over 20% in size; further: potency means the concentration at half of the fitted maximal effect
[17] = qHTS RealTime-Glo MT Cell Viability Assay in HEK293 cells - 16 hour (AID 1224872)
Method in brief: as §1

[18] = qHTS RealTime-Glo MT Cell Viability Assay in HEK293 cells - 24 hour (AID 1224886)
Method in brief: as §1

[19] = qHTS assay to identify small molecule antagonists of the estrogen related receptor (ERR) signaling pathway from Tox21 library - cell viability counter screen (AID 1224834); further: potency means the concentration at half of the fitted maximal effect; nearly all actives have a fitted effect of over 30% in size
Method in brief: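 Fluorescence from CellTiter-Fluor gives the viability read-out, taken 30 min after reagent addition. Before that, ERR cells seeded 6 h earlier were incubated with compounds for 17.5 h at 37 C.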
Tags describe the fitted curve by direction and shape or compound fluorescence and quenching.

Sequence of UniProt P08659 (P08659 whole entry, looked up): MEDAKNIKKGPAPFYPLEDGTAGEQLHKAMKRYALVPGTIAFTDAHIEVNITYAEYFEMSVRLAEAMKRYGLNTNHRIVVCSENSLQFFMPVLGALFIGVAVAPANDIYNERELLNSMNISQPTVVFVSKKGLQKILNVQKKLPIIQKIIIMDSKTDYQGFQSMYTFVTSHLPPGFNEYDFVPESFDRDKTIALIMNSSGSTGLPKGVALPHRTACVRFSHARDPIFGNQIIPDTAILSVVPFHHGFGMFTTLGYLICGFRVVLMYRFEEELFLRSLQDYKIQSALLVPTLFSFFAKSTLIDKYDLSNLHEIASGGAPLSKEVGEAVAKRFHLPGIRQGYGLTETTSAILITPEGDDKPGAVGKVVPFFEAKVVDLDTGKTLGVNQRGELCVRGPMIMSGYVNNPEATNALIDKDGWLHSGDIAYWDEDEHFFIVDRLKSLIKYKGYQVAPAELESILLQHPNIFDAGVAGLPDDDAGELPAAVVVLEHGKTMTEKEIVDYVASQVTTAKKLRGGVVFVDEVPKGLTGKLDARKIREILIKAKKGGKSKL
Sequence of UniProt Q92731 (Q92731 whole entry, looked up): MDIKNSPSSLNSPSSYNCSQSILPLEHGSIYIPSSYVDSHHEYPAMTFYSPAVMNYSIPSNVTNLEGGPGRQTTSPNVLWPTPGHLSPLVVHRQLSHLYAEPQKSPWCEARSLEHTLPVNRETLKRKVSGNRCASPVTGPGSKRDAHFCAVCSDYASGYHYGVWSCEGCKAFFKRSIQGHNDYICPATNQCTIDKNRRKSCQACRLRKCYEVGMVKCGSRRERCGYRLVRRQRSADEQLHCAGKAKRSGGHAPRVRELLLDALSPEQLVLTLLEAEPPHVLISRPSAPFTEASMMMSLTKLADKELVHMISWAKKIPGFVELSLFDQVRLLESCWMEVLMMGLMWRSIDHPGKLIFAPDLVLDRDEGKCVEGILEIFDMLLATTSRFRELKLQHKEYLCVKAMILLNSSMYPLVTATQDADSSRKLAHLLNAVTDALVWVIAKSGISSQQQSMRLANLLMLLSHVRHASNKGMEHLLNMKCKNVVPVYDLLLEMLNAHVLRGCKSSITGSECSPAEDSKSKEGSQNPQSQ
Sequence of UniProt Q03181 (Q03181 whole entry, looked up): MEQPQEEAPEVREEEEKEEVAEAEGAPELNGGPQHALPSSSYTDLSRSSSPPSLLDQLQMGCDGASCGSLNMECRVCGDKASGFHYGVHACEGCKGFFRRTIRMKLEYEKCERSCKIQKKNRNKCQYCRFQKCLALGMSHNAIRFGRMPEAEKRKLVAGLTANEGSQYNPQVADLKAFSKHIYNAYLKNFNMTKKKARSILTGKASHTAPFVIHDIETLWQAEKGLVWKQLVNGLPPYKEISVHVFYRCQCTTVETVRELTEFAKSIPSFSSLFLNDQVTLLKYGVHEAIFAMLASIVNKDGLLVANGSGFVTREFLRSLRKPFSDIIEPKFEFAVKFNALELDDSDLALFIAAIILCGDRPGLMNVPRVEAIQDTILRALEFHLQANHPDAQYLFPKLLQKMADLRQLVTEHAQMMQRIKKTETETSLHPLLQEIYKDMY
Sequence of UniProt P03372 (P03372 whole entry, looked up): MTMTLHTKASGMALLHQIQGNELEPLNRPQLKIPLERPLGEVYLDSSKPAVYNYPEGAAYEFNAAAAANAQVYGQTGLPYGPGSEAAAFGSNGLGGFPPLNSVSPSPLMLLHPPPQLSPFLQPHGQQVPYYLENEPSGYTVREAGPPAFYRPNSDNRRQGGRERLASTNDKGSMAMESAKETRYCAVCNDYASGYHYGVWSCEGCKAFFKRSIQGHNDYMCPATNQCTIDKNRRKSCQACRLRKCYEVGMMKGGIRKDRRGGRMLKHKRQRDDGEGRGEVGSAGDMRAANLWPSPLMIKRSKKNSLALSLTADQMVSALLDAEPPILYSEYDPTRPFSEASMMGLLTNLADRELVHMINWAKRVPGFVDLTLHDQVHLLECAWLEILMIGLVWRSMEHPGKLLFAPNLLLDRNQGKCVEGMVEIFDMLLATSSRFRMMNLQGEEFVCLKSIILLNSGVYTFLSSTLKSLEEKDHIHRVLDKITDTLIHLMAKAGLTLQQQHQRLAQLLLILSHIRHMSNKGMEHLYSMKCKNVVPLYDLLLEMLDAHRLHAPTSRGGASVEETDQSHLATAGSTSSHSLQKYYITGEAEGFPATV
Sequence of UniProt O75469 (O75469 whole entry, looked up): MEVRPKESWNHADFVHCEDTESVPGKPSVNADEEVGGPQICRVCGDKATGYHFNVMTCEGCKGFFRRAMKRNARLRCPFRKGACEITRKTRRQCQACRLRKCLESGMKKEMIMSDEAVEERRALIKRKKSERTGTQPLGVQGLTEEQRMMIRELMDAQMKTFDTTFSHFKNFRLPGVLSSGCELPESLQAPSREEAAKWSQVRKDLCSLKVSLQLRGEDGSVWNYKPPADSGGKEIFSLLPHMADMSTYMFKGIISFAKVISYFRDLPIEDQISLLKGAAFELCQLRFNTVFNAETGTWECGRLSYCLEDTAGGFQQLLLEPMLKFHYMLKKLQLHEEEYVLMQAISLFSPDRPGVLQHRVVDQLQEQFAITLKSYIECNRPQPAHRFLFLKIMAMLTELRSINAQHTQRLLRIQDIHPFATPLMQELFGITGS

S=c1[nH]c2ccccc2[nH]1
Potency [1]: inactive
Potency [2]: inconclusive: 0.219 µM [rising, full curve, poor fit]
Potency [3]: inconclusive: 79.6 µM [inhibitor, partial curve, poor fit]
Potency [4]: inconclusive: 30.7 µM [cytotoxic, full curve]
Potency [5]: active: 24.4 µM and inconclusive: 43.3 µM [cytotoxic, partial curve]
Potency [6]: inconclusive: 68.7 µM [cytotoxic, single point]
Potency [7]: inconclusive: 61.1 µM [activator, partial curve]

COc1ccccc1N
Potency [8]: inconclusive: 0.981 µM [rising, full curve, poor fit]
activity change, negative = cytotoxicity [8]: inconclusive: 35.3% [at 81.1 µM, co-treated with 50 nM rosiglitazone]
Potency [2]: inactive
Potency [3]: inconclusive: 79.6 µM [inhibitor, single point]
Potency [7]: inconclusive: 15.4 µM [activator, full curve, poor fit]

CC1NCCOC1c1ccccc1 (centres undefined)
Potency [9]: inactive
Potency [10]: inconclusive: 55.2 µM [rising, single point]
Potency [11]: inactive
Potency [12]: inactive
Potency [13]: inactive
Potency [5]: inactive

C(COCC1CO1)OCC1CO1 (centres undefined)
Potency [14]: inactive
Potency [3]: inactive
Potency [11]: inconclusive: 38.9 µM [cytotoxic, partial curve]

CNC(=O)O/N=C/C(C)(C)SC
Potency [1]: inconclusive: 2.19 µM [cytotoxic, single point]
viability change, negative = cytotoxic [1]: inconclusive: 0.478% [cytotoxic] [at 80.4 µM]
Potency [15]: inconclusive: 12.3 µM [cytotoxic, single point]
Potency [10]: inactive

CC#Cc1cc(C)nc(Nc2ccccc2)n1
Potency [16]: inconclusive: 13.7 µM [activator, full curve]
Potency [14]: inconclusive: 15.3 µM [rising, partial curve]
Potency [2]: inconclusive: 9.76 µM [rising, partial curve, poor fit]
Potency [11]: inconclusive: 15.5 µM [cytotoxic, partial curve]
Potency [17]: inconclusive: 30.9 µM [cytotoxic, partial curve]
Potency [18]: inconclusive: 24.5 µM [cytotoxic, partial curve]
Potency [12]: inconclusive: 30.9 µM [cytotoxic, partial curve, poor fit]
activity, negative = inhibition [13]: inconclusive: -26%

C=CC(=O)OCC(CC)CCCC (centres undefined)
Potency [8]: inconclusive: 19.4 µM [cytotoxic, single point]
Potency [1]: inactive
Potency [6]: inconclusive: 24.3 µM [cytotoxic, single point]

COC1=CC(=O)O[C@@H](/C=C/c2ccccc2)C1
Potency [2]: inactive
activity, negative = inhibition [13]: inconclusive: 0.0313%

COP(=O)(OC)O/C(C)=C/C(=O)N(C)C
Potency [14]: inactive
Potency [8]: inconclusive: 3.49 µM [rising, partial curve, poor fit]
ratio activity, negative = inhibition [9]: inconclusive: -4.23% [at 80.4 µM]
Potency [2]: inconclusive: 24.7 µM [rising, partial curve]
Potency [15]: inconclusive: 0.0696 µM [cytotoxic, full curve, poor fit]

O=C(Cc1ccccc1)c1ccccc1
activation [16]: inconclusive: 18.3% [phenotype inactive]
activity change, negative = inhibition [14]: inconclusive: -7.35%
ratio activity, negative = inhibition [9]: inconclusive: -2.8%
Potency [15]: inconclusive: 0.0549 µM [cytotoxic, single point]
Potency [3]: active: 71 µM

O=[N+]([O-])CCO
Potency [1]: inactive
Potency [2]: inactive
Potency [15]: inconclusive: 4.58 µM [rising, full curve, poor fit]
Potency [5]: inactive
Potency [7]: inactive

Nc1ccc2c(c1)Cc1ccccc1-2
Potency [16]: active: 4.3 µM
Potency [14]: inconclusive: 3.42 µM [rising, full curve, poor fit]
Potency [3]: active: 39.7 µM
Potency [10]: inconclusive: 100 µM [falling, single point]
Potency [11]: inconclusive: 21.8 µM [cytotoxic, partial curve]
Potency [17]: inconclusive: 7.72 µM [cytotoxic, partial curve, poor fit]
Potency [18]: inconclusive: 21.8 µM [cytotoxic, partial curve]
Potency [13]: inactive
Potency [7]: active: 27.1 µM

COC(=O)C(C)N(C(=O)c1ccco1)c1c(C)cccc1C (centres undefined)
Potency [14]: inconclusive: 21.7 µM [falling, partial curve, poor fit]
Potency [9]: inactive
Potency [5]: inactive

CC[N+](=O)[O-]
Potency [8]: inactive
Potency [15]: inconclusive: 0.199 µM [cytotoxic, single point]

CC[C@H](O)C(C[C@H](C)N(C)C)(c1ccccc1)c1ccccc1
Potency [1]: inactive
Potency [15]: inactive
Potency [19]: inconclusive: 0.002 µM [rising, full curve, poor fit]
Potency [11]: inconclusive: 56.1 µM [cytotoxic, partial curve]
Potency [18]: inconclusive: 50 µM [cytotoxic, partial curve]
Potency [4]: inconclusive: 35.1 µM [cytotoxic, partial curve, poor fit]
Potency [5]: inconclusive: 31.2 µM [cytotoxic, partial curve]
